According to patent US20220128561A1:

Legend:
[1] = target: Human apo-sGC (H105F) (human) (UniProt Q02108); test: SPR
[2] = target: rat apo-sGC (H105F) (rat) (UniProt P19686); test: SPR
[3] = target: rat apo-sGC (H105F) (rat) (UniProt P19686); test: capture ELISA: IgG coated at 5 ug/mL, rat apo-sGC (H105F) titrated, streptavidin-HRP, OD 450 nm; the axis gives the sGC concentration
[4] = target: Human apo-sGC (H105F) (human) (UniProt Q02108); test: capture ELISA: IgG coated at 5 ug/mL, human apo-sGC (H105F) titrated, streptavidin-HRP, OD 450 nm; the axis gives the sGC concentration

UniProt Q02108, sequence (Q02108 whole entry, chain 1 of 2): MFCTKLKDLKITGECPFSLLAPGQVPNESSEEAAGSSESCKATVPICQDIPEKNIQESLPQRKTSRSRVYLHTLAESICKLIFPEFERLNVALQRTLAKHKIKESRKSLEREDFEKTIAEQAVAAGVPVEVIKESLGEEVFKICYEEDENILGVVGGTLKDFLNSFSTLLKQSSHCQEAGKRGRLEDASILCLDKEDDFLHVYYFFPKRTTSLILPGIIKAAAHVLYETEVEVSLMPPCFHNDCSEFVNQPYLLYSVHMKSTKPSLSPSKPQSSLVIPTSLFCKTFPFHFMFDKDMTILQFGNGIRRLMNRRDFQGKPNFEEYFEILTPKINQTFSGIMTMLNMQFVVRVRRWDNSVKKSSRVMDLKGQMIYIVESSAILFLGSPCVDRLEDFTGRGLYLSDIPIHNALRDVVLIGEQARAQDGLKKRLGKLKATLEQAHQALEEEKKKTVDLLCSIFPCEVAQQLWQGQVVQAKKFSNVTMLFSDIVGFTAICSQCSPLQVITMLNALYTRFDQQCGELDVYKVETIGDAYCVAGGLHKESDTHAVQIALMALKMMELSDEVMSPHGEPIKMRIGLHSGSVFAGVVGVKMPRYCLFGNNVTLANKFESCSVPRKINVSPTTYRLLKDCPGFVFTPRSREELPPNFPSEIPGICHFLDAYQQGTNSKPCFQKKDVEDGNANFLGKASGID
UniProt Q02108, sequence (Q02153 whole entry H105F, chain 2 of 2, further chain): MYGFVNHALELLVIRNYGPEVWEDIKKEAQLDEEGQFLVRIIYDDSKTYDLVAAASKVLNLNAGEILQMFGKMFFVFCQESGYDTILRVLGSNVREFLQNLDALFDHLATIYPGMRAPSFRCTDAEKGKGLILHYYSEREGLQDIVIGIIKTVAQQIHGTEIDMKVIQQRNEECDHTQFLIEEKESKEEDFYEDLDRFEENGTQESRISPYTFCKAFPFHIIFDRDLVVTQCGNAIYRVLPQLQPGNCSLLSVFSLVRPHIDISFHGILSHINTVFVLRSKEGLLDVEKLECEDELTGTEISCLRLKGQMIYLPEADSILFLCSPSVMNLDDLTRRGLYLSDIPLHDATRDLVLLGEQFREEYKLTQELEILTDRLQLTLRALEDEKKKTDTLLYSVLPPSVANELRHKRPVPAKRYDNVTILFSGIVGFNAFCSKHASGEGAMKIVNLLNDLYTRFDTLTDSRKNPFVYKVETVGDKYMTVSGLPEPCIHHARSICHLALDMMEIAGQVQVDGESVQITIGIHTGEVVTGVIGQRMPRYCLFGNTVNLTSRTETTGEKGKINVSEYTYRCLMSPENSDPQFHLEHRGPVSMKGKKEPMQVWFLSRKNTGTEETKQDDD
UniProt P19686, sequence (P19686 whole entry, chain 1 of 2): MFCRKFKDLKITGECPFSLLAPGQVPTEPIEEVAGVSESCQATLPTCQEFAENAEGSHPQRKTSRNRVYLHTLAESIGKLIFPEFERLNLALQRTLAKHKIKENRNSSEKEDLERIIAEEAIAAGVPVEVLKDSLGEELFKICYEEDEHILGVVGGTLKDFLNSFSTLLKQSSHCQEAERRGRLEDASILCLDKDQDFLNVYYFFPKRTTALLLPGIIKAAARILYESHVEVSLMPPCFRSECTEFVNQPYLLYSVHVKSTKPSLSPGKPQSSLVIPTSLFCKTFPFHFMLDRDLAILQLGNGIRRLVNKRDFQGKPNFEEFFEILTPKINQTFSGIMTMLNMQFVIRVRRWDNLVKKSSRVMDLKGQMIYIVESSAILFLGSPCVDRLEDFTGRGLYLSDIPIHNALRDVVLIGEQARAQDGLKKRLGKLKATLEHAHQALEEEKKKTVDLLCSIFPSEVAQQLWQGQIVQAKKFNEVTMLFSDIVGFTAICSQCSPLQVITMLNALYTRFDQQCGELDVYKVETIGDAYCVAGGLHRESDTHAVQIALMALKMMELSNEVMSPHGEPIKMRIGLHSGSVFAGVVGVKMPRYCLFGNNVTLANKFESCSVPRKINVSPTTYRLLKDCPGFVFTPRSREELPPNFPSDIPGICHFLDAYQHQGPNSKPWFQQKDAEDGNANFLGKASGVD
UniProt P19686, sequence (P20595 whole entry H105F, chain 2 of 2, further chain): as the sequence (Q02153 whole entry H105F, chain 2 of 2, further chain) above, with N171S, E205D, N247K, T299A, K615N, D618E, D619N counted along it

Kd [1]: 72 nM | Kd [2]: 45 nM | EC50 (read off the curve) [3]: 50 nM | EC50 (read off the curve) [4]: 60 nM
B1: TPP15717 (antibody, human IgG1, lambda, V domains shown)
VH: [about 100 residues not spelt out]EQWLGAEGAFDIWGQGTLVTVSS
VL: QSVLTQPPSASGTPGQRVTISCTGSSSNIGAGYVVHWYQQLPGTAPKLLIYNNSQRPPGVPDRFSGSKSGTSASLAISGLRSEDEADYYCASWDDSLSGVVFGGGTKLTVLG
